# PubChem BioAssay AID2546 (National Center for Advancing Translational Sciences (NCATS), 2010)
# Among all 310,000 compounds or so, about 11,000 (3.5%) were called active. This list was built around the results that the source calls inconclusive (neither active nor inactive); the mix of calls is not that of the screen. Calls follow the shape of the dose curve; as a rule, active = well fitted inhibition curve with a large enough effect; inconclusive = small, poorly fitted or top-dose-only effect, or effect the other way; inactive = flat fitted curve, though single readings scatter. Potencies of inconclusive entries are left out as doubtful fits.
# Experiment: VP16 counterscreen qHTS for inhibitors of ROR gamma transcriptional activity;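 also: Gal4-VP16 expression switched on by copper sulfate through the metallothionein promoter; nearly all actives have a fitted effect of over 50% in size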
# Settings: Drosophila S2 Gal4-VP16 UAS-luciferase, luminescence, 20 h; activity, negative = inhibition: at 53.6 µM (top of the series)
# % is scaled to controls: 0 for no effect and ±100 for the full control effect; potency is read from the fitted curve at half-maximal effect; tags tell the direction and shape of the fitted curve.
SMILES,Potency,"activity, negative = inhibition"
Oc1cc2c(cc1C(c1ccc(Cl)c(Cl)c1)N1CCCC1)OCO2 (configuration not stated),"inconclusive [inhibitor, single point]",
Cc1ccccc1OCCOCCN1CCCCCC1,,inactive: -0.298%
Cn1ncc(Br)c1C(=O)N/N=C/c1ccc(OS(=O)(=O)c2ccccc2)cc1,"inconclusive [inhibitor, single point]",
S=C1CSc2ccccc2N1,active: 7.94 µM,
COc1ccccc1-c1cc(C(=O)N/N=C/c2sccc2C)c2ccccc2n1,active: 8.91 µM,
CCC(C)Nc1ccc(NC(C)CC)cc1 (configuration not stated),"inconclusive [inhibitor, single point]",
O=C1CC(c2ccc(S(=O)(=O)NCc3ccncc3)cc2)CN1 (configuration not stated),"inconclusive [inhibitor, partial curve]",
O=C(O)c1ccc(F)c(S(=O)(=O)Nc2ccccc2Cl)c1,"inconclusive [inhibitor, single point]",
COc1ccc(CN2CC(=O)N(c3ccc(C)cc3)C2=S)cc1OC,,inactive: 4.88%
O=C(O)C(O)C(O)(Cc1ccc(O)cc1)C(=O)O (configuration not stated),"inconclusive [inhibitor, full curve, poor fit]",
N=c1n(CC(=O)c2cccc([N+](=O)[O-])c2)c2ccccc2n1Cc1ccccc1,"inconclusive [inhibitor, single point]",
COc1ccc(S(=O)(=O)N(C)c2ccc(C(=O)Nc3ccccc3C(=O)N3CCOCC3)cc2)cc1,,inactive: 6.45%
Cc1ccc[n+](CC(=O)Nc2ccc([N+](=O)[O-])cc2Cl)c1,"inconclusive [inhibitor, single point]",
CCCN1CCC(NC(=O)C2CCN(C(C)=O)CC2)CC1,,inactive: -7.53%
CN(c1ccc(OCC(=O)OCC(=O)Nc2ccc(F)cc2)cc1)S(=O)(=O)c1ccc(Cl)cc1,,inactive: -0.0601%
Cc1ncc(COP(=O)(O)O)c(CN)c1O,,inactive: -0.0527%
Cc1ccc(NC2Nc3cc(C)nn3S2)c(C)c1 (configuration not stated),"inconclusive [inhibitor, single point]",
O=C(Nc1ccc(S(=O)(=O)N2CCOCC2)cc1)c1ccc(Cl)cc1,,inactive: -8.82%
COc1ccccc1NC(=O)CSc1n[nH]c(-c2ccccn2)n1,active: 5.01 µM,
c1ccc(CN2CCN(c3nc(NCc4ccco4)c4ccccc4n3)CC2)cc1,"inconclusive [inhibitor, single point]",
Cc1ccc(Oc2ncnc(N)c2[N+](=O)[O-])cc1C,,inactive: -11.6%
Fc1ccccc1NC(=S)Nc1ccc(Br)cc1,"inconclusive [inhibitor, single point]",
O=C(Nc1nc(-c2ccccc2)cs1)c1ccc(N2CCOCC2)c([N+](=O)[O-])c1,"inconclusive [inhibitor, single point]",
Cc1cc(Cl)ccc1NC(=S)NCC(O)c1ccccc1 (configuration not stated),"inconclusive [inhibitor, single point]",
Cc1cccc(Cl)c1NC(=S)NCCc1ccccn1,"inconclusive [inhibitor, single point]",
CCOc1cc(CNCCO)cc(Br)c1OCc1ccc(Cl)cc1,"inconclusive [inhibitor, single point]",

SMILES,Potency,"activity, negative = inhibition"
O=C(Nc1nccs1)c1cc2c(s1)-c1ccccc1OC2,active: 4.47 µM,
S=C(NC1CCCC1)N1CCN(C/C=C/c2ccccc2)CC1,"inconclusive [inhibitor, single point]",
Cc1noc(C)c1-c1ccc2ncnc(NCc3ccc(Br)cc3)c2c1,active: 11.2 µM,
COCCNc1c(-c2ccc(O)cc2)nc2ccc(Cl)cn12,"inconclusive [activator, single point]",
N/C(=N\C(=S)Nc1ccccc1)c1ccccc1,"inconclusive [inhibitor, single point]",
O=C(COc1ccc(Br)cc1)N1CCNC1=O,,inactive: -4.24%
O=C1c2ccccc2N2C(=O)c3ccccc3C2N1Cc1ccco1 (configuration not stated),"inconclusive [activator, partial curve]",
CCC(=O)N(CC(=O)Nc1sc(C)c(C)c1C(N)=O)C1CCCC1,,inactive: 1.53% [at 10 µM]
CCC(C)(C)C1CCC(=NNC(=S)Nc2cccnc2)CC1 (configuration not stated),,inactive: 15.8%
COc1cc(Br)c(Br)c(Br)c1N,"inconclusive [inhibitor, single point]",
O=C1CSC(=S)N1/N=C/c1cccnc1,,inactive: -27.1%
CCOc1ccc2nc3cc(NCc4ccc(OC)cc4)ccc3c(N)c2c1,"inconclusive [inhibitor, single point]",
CCN(CC)c1ccc(C=O)c(OC)c1,,inactive: 2.39%
Cc1ccc(C(=O)CSc2nnnn2C(C)C)c(C)c1,active: 12.6 µM,
COC(=O)[C@H](CCSC)NC(=O)Nc1cc(OC)cc(OC)c1,,inactive: 2.02%
CCC(=O)Nc1nc2ccccc2n1CCN1CCOCC1,"inconclusive [inhibitor, single point]",
CN(C)c1ccc(/C=C/C(=O)c2ccccc2)cc1[N+](=O)[O-],"inconclusive [inhibitor, single point]",
COc1ccc(NS(=O)(=O)c2cccc(NC(=O)C34CCC(CC3)C4)c2)cc1,"inconclusive [inhibitor, partial curve, poor fit]",
COc1cccc(/C=N\NS(=O)(=O)c2ccccc2)c1OC,,inactive: -6.37%
CCn1c(CNC(=O)COc2ccc(C(C)C)cc2)nnc1SCC(=O)Nc1ccccc1C(C)C,active: 20 µM,
Clc1ccccc1COc1ccc(/C=N/n2cnnc2)cc1,,inactive: -3.96%
C[C@H]1CN=C(Nc2ccccc2)N1CC1CCCCC1,,inactive: -6.82%
CNC(=S)N/N=C/c1cn(Cc2ccc(F)cc2)c2ccccc12,active: 1.12 µM,
O=C(Cc1nc(=O)c2ccccc2s1)Nc1ccccc1,"inconclusive [inhibitor, single point]",
CCOC(=O)N1CCN(CC(=O)c2ccc(O)c(C)c2O)CC1,"inconclusive [inhibitor, single point]",
Cc1ccc(C2CCN(C(=S)NC(C)(C)C)C2)cc1 (configuration not stated),,inactive: -5.66%
